Experimental data published in the RNAGym collection of RNA variant scans (doi:10.7554/elife.90254).
Read counts are not given, so values of variants with three or more changes are uncertain.

B1: LINE1-mini (parent)
chain: GGCAGAGCUCAACACAGCGUGGCAAAGUGGCUGUGGCUAGACUGCC

Variants of: B1
Experiment: self-cleavage, relative activity (ratio to wild type); higher = more cleavage; in vitro, sequencing; the parent is a self-cleaving ribozyme
A4U A16C G17U A25U U32A U34G showed a self-cleavage of 0.05. Work on A4U C8A A16U A41G yielded a self-cleavage of 0.02. A4U G17U G19A U28C U32A showed a self-cleavage of 0.06. A4G G7C C15G G19U C37A showed a self-cleavage of 0.04. A4U G7C C18G G22A A24U G30U G44A gave a self-cleavage of 0.02. A4U C10A A24U G30C G36C A41U C45G C46U showed a self-cleavage of 0.01. Variant A4U A14G A24U U43A has a self-cleavage of 0.21. For A4G A16G G40U, the self-cleavage was 0.05. A4G C10G C37A G40C showed a self-cleavage of 0.01. Work on A4U C15U C18A C45A yielded a self-cleavage of 0.03. With A4G G17U G22U A24U A39U the self-cleavage was 0.05. For A4G C13U A25G G33U, the self-cleavage was 0.3. With A4U A14C C15U C23U the self-cleavage was 0.1. Variant A4G C8A G21C G22C G30C has a self-cleavage of 0.12. For A4G G7U G17U G21U U34A, the self-cleavage was 0.02. For A4U C10U U20C, the self-cleavage was 0. Work on A4G C13G G27A C46U yielded a self-cleavage of 0.1. A4U C10G U34C showed a self-cleavage of 0.02. In the case of A4U G22A G29U G40C, the self-cleavage is reported as 0.15. Work on A4U G17A U43C yielded a self-cleavage of 0.01. Variant A4G C13G A14G U43A C45U has a self-cleavage of 0.06. With A4U A16G G27C G40C the self-cleavage was 0.01. A4G G5C G7U G21C A25C A39U G44U showed a self-cleavage of 0.24. Variant A4U G17C C18U G33U has a self-cleavage of 0.06. A4G G33U A39G C42G showed a self-cleavage of 0.12. In the case of A4G U20C A25C G27C U43A C45A, the self-cleavage is reported as 0.03. A4U G5A G22A C46A showed a self-cleavage of 0.13. A4G C15A A26G showed a self-cleavage of 0.11. Work on A4G U9A C42U yielded a self-cleavage of 0.18. A4G C8A C23A gave a self-cleavage of 0.06. Variant A4G G5A G7U G29U has a self-cleavage of 0.28. A4U C23A U43A showed a self-cleavage of 2.64. Variant A4G G5A A6G G7C C8U U9C C10A has a self-cleavage of 0.01. A4G C8A A26C A41C showed a self-cleavage of 0.34. Work on A4G G5U G33C C42G yielded a self-cleavage of 0.1. With A4U C15A A16C the self-cleavage was 0.09. Work on A4G G5C C10U A14G G44U C46A yielded a self-cleavage of 0.03. In the case of A4G C15A U20A A24C, the self-cleavage is reported as 0.02. In the case of A4U C23G G27U, the self-cleavage is reported as 0.04. Variant A4G U20A A25U A39C C46G has a self-cleavage of 0.05. Work on A4U C10A C18A G22C C23G G27U G33A C45G yielded a self-cleavage of 0.01. A4U G19C U28G A41G gave a self-cleavage of 0.02. Variant A4U G5A G21A G27C G33C has a self-cleavage of 0.03. A4U A24U C42U showed a self-cleavage of 0.09. Variant A4U G5A C10U G22U U34C A39G has a self-cleavage of 0.05. A4U C10U A14G showed a self-cleavage of 0.03. A4U C13A C37U U38A showed a self-cleavage of 0.07. A4G G5C A11G G19C G21U A39G showed a self-cleavage of 0.01. For A4G G5U C42A, the self-cleavage was 0.11. In the case of A4U G17C G19C A26U G27U, the self-cleavage is reported as 0.09. For A4G G27A G36U, the self-cleavage was 0.06. Work on A4G U9C C31A U43C C45A yielded a self-cleavage of 0.01. With A4G C13A C15G A16C G22A A26C the self-cleavage was 0.43. Work on A4U A6G U34G yielded a self-cleavage of 0.02. Work on A4G G7A C10U G27U U34C yielded a self-cleavage of 0.05. With A4U G5U C45U the self-cleavage was 0.07. Work on A4G C18U C31A C37A yielded a self-cleavage of 0.06. Work on A4G A12G G17U G21A yielded a self-cleavage of 0.06. For A4U C8A C37G U38A, the self-cleavage was 0.02. A4U C23U C37U showed a self-cleavage of 0.03. In the case of A4G G5U C15U G17A C42U, the self-cleavage is reported as 0.03. A4G G35U C46A showed a self-cleavage of 0.03. A4U C42A U43C showed a self-cleavage of 0.81. A4U A14G C18U G30U G36U showed a self-cleavage of 0.17. In the case of A4G C8A A14G G22C G36U, the self-cleavage is reported as 1.5. A4U C18A G30A C37U showed a self-cleavage of 0.06. A4G C18A A26G G36C U38C G40A showed a self-cleavage of 0.03. Variant A4U C15A C46A has a self-cleavage of 0.04. Work on A4U G7U C45U yielded a self-cleavage of 0.52. In the case of A4G C8U A11C A12U A24C C31U, the self-cleavage is reported as 0. For A4U A6U C10A A16U G36A A39U G44U, the self-cleavage was 0.01. A4G G17A G33U G44A showed a self-cleavage of 0.04. A4U C8U C15A gave a self-cleavage of 0.09. For A4G C15U G19A A24G C31A, the self-cleavage was 1.73. Variant A4U C15A G33C U34A has a self-cleavage of 0. In the case of A4G C10G A12C A14U G17A, the self-cleavage is reported as 0.02. A4U A11U U38A G44C showed a self-cleavage of 0. With A4G C23G G36U G40U the self-cleavage was 0.14. Variant A4G C8G G22C has a self-cleavage of 0.03. For A4U A16C U28G, the self-cleavage was 0.05. Work on A4G G7C C13U A25G yielded a self-cleavage of 0.09. In the case of A4G C10A C15G C23U C37G, the self-cleavage is reported as 0.01. Variant A4G C15U C18A has a self-cleavage of 0.02. For A4G C18U G30U, the self-cleavage was 0.06.
